We go through 86 compounds from PubChem BioAssay AID1346428 (National Center for Advancing Translational Sciences (NCATS), 2018).

Values joined by “and” are separate entries in the source; they are usually repeats but may differ in a detail not shown here. Equal entries are not always repeated. Hit rate of the full screen: of about 48,000 compounds, about 1,200 (2.5%) were called active. About 2% were inconclusive and are not listed.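 Rule for the calls: active = activation of at least 60% and not above a set upper limit (about 1 call in 100 departs from these limits); inconclusive = activation of 40% to 60%, or above that upper limit; inactive = activation under 40%.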 The list shows a part of the results.

In the experiment the target is Probable G-protein coupled receptor 32 (Homo sapiens) (UniProt O75388). Nature of the experiment: qHTS for Agonists of Human Resolvin D1 Receptor DRV1. Note: 0% is about no effect. The following applies: CHO-K1 GPR32 beta-arrestin PathHunter luminescence, 90 min; at 76.9 µM; active compounds read high; zero percent set by DMSO-only wells. The method in brief: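 Readings come from a cell-based beta-arrestin complementation format: CHO-K1 GPR32 stable cells (2,500/well) treated 90 min with compounds, then beta-Gal substrate added for 1 h before chemiluminescence imaging.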
Chain of UniProt O75388 (O75388 whole entry, looked up): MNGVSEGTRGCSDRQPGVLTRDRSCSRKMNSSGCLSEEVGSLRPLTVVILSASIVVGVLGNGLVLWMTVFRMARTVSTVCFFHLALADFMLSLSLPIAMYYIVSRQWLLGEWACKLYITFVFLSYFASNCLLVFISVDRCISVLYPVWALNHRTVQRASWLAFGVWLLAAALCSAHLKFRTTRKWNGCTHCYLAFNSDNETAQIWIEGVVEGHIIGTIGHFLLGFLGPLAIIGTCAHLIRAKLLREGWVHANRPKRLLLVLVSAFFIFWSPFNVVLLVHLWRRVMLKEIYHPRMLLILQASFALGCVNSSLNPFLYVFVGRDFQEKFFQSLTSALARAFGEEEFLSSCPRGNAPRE
(In qHTS, concentration-response curves come from the screen itself.)
For the compound `CC(=O)c1ccc(NC(=O)Cn2c(-n3nc(C)cc3C)nc(C)c(C)c2=O)cc1`, the activation was inactive: -12%. With `CCOc1ccccc1Nc1nnc(-c2cc3cc(OC)ccc3oc2=O)s1` the figure was inactive: 0.59%; with `CCN(CC)c1cc2c(cc1F)c(=O)c(S(=O)(=O)c1ccc(OC)cc1)cn2Cc1ccccc1`, inactive: -3.41%; with `CCOC(=O)Cc1ccc(NC(=O)N2CCC(CN3CCCCCC3)CC2)cc1`, inactive: -21.1%. In the case of `COc1ccc(C(=O)N2CCC(C(=O)Nc3ccc(Cl)cc3)CC2)cc1`, the activation was inactive: 28.7%. In the case of `CCCCN(CC)CCCNC(=O)Cn1ncc2c3ccccc3n(C)c2c1=O`, the activation is inactive: -14.7%.

Turning to `CCOc1ccc(S(=O)(=O)N(CC(=O)NCc2ccccc2OC)c2ccccc2)cc1`, the activation is inactive: -2.63%. For the compound `COc1cccc(CSc2nc3n(n2)C(CC(C)C)C(C(=O)Nc2ccccc2OC)=C(C)N3)c1` (stereo unspecified), the activation is inactive: 21.8%.

With `Cc1cc(=O)n2nc(N(C)CC(=O)NCc3cccc(Br)c3)sc2n1`, the activation is inactive: -14.5%. Consider `Cc1ccc(/C(=C\CN2CCCC2)c2ccccn2)cc1`, for which the activation was inactive: 11.1% and inactive: -22%. Regarding `CCOc1ccc(OCC)c(NC(=O)Cn2nc(CC)n3c(cc4sccc43)c2=O)c1`, the activation was inactive: -16.9%. As for `CCOC(=O)c1ccc(NC(=O)NCCOCCn2c(=O)oc3ccccc32)cc1`, the activation was inactive: 13.2%.

In the case of `CCCC12CN3CC(CCC)(CN(C1)C3c1ccccc1)C2=O` (stereo unspecified), the activation is inactive: -5.45%. For `CCOC(=O)c1cc(S(=O)(=O)N2CCN(c3ccc(C(C)=O)cc3)CC2)[nH]n1`, the activation was inactive: -17%. As for `CCS(=O)(=O)c1nc(S(=O)(=O)c2ccc(C)cc2)c(NCCCOC)s1`, the activation was inactive: -3.06%. With `COc1ccc(N2CC(NC(=O)c3ccco3)CC2=O)cc1` (stereo unspecified) the figure was inactive: -2.49%; with `Nc1cc(=O)nc(SCC(=O)Nc2ccc(F)cc2)n1CCc1ccccc1`, inactive: 2.66%; with `O=c1onc2n1-c1cc(Br)ccc1OC2`, active: 64.5%.

Regarding `CCn1c(CNC(=O)c2ccc(OC)cc2)nnc1SCC(=O)Nc1ccc(C)cc1`, the activation was inactive: 11.4%. With `Cc1cc2oc3c(c(=O)c2cc1C)C1(C(=O)N(C)c2ccccc21)N(CCO)C3=O` (stereo unspecified), the activation is inactive: -16.4%.

For `CCN(CC)CCNC(=O)c1ccc2nc(CCc3ccccc3)oc2c1`, the activation is inactive: 9.96%. As to `COc1ccccc1NC(=O)C1CCN(C(=O)c2sc3nc[nH]c(=O)c3c2C)CC1`, the activation was inactive: -14.9%. With `O=C(Nc1ccccc1Br)C(Cc1ccccc1)NS(=O)(=O)c1cccc2nsnc12` (stereo unspecified) the figure was inactive: -22.3%.

Consider `COc1ccc(CNC(=O)Cn2ncc3c([nH]c4ccccc43)c2=O)cc1`, for which the activation was inactive: 5.62%.

Take `Cc1cccc(CCNC(=O)CCc2c(C)nc3c4c(C)cc(C)nc4nn3c2C)c1`: the activation is inactive: -9.26%. For `Cc1nn(-c2ccc(N3CCCC3)nn2)c(C)c1CCC(=O)Nc1ccc(F)cc1F`, the activation was inactive: -5.82%.

In the case of `CCc1cccc(C)c1NC(=O)Cn1c(=O)cc(C)c2c(C)nn(-c3cccc(F)c3)c21`, the activation was inactive: -5.7%.

Turning to `Cc1c(C(=O)Nc2ccccc2F)sc2ncnc(N(C)C3CCCCC3)c12`, the activation is inactive: 11.9%.

In the case of `COc1ccccc1N1CCN(c2cc(C)nc3nc(-c4ccc(C)cc4)nn23)CC1`, the activation is inactive: -13%. As for `O=C(NCc1ccc(F)cc1)c1ccc(Nc2nc3ccccc3n3nnnc23)cc1`, the activation is inactive: -0.273%. Regarding `CCCc1ccc(-c2ccc(C(=O)Oc3ccc(OCC)cc3)cc2)nc1`, the activation is inactive: 9.13%. As for `CCCCN(C)S(=O)(=O)c1ccc(C(=O)Nc2sc3c(c2C(N)=O)CC(C)(C)NC3(C)C)cc1`, the activation was inactive: 13.1%. With `CCN(Cc1ccccc1)C(=O)Cn1c(=O)n(-c2ccc(Cl)cc2)c(=O)c2c(C)c(C(=O)N(C)C)sc21` the figure was inactive: -12.3%. In the case of `Cc1c(CCC(=O)NCc2cccc(Cl)c2)c(=O)oc2c(C)c(O)ccc12`, the activation is inactive: 23.3%. On to `Cc1ccc(CCNC(=O)CS(=O)Cc2nc(-c3ccccc3C)oc2C)cc1` (stereo unspecified), for which the activation was inactive: 3.04%.

Regarding `O=C(CSc1nc2c(oc3ccccc32)c(=O)n1Cc1ccco1)Nc1ccccc1Cl`, the activation is inactive: -11%. Regarding `O=C(Cn1cnc2c(oc3ccccc32)c1=O)Nc1ccc(F)cc1F`, the activation was inactive: -15.4%. As for `CCc1ccc(OCc2nc(-c3ccc(OC)cc3)no2)c(Br)c1`, the activation is inactive: -18.8%. For `CCCc1ncc(C(=O)O)s1`, the activation was inactive: -6.33%. Turning to `O=C(Cn1ncc2c3ccccc3n(Cc3cccc(Cl)c3)c2c1=O)NCc1cccs1`, the activation is inactive: -0.712%.

`O=C(Nc1nc2ccccc2s1)c1ccc(S(=O)(=O)N2CCCC2)cc1`: the activation is inactive: -12.7%.

On to `CCOc1ccc(C2C(=O)N(C3CCCCCC3)CC(=O)N2CCc2ccc(OC)c(OC)c2)cc1OC` (stereo unspecified), for which the activation was inactive: -28.1%.

`O=S(=O)(c1ccc2nc(NCc3ccccc3Cl)ccc2c1)N1CCCCC1`: the activation was inactive: -43.5%. For `CC(CNC(=O)c1ccc(CSc2nc3ccncc3n2Cc2ccccc2)cc1)c1ccccc1` (stereo unspecified), the activation is inactive: -10.5%. On to `COc1ccc(CNC(=O)CSc2nc(-c3ccc(OC)c(OC)c3)cc(C(F)(F)F)n2)cc1`, for which the activation is inactive: -11%. Consider `Cc1c(Cl)cccc1-n1nc(C)c2c(C)cc(=O)n(CC(=O)N3CCCc4ccccc43)c21`, for which the activation is inactive: -8.41%. As for `COc1ccc(-c2nc3ccccc3n3c(-c4ccc(OC)cc4)c4c(=O)n(C)c(=O)n(C)c4c23)cc1`, the activation is inactive: 1.79%. As to `Cc1ccc(CNC(=O)CCCN2C(=O)CCn3nc(-c4cccn4C)cc32)cc1`, the activation was inactive: -9.42%. Take `Cc1cc2oc3c(c(=O)c2cc1C)C(c1ccc(C(C)C)cc1)N(c1nc(C)c(C)s1)C3=O` (stereo unspecified): the activation is inactive: -0.586%. For `CCCNC(=O)C1CCN(c2nc3ccc(C)cc3[nH]2)CC1`, the activation was inactive: -16.1%. With `CCCOc1ccc(CNC(=O)C2CCN(C(=O)c3sccc3-n3cccc3)CC2)cc1` the figure was inactive: -12.2%; with `Cc1cnc(=O)[nH]c1SCC(=O)Nc1cc(C(F)(F)F)ccc1Cl`, inactive: -0.474%; with `CCOC(=O)c1ccc2c(c1)N(Cc1ccc(F)cc1Cl)C(=O)c1ccccc1S2`, inactive: -29.5%. With `Cc1cccc(C(=O)Nc2ccc(N3CCC(N4CCCCC4)CC3)c(C(=O)O)c2)c1` the figure was inactive: -6.7%. With `CCN1CCN(c2cc(C)c3cc(NC(=O)/C=C/c4ccc(C)cc4)ccc3n2)CC1` the figure was inactive: -8.31%; with `COc1cccc(NC(=O)N(Cc2cn(C)c3ccccc23)C2CCCCCC2)c1`, inactive: -1.49%; with `COCCNC(=O)CSc1nc(-c2ccccc2)[nH]c1-c1ccc(C)cc1`, inactive: -22.5%.

Turning to `Cc1ccc(C)n1-c1nnc(N2CCCC(C(=O)NCc3cccc(Br)c3)C2)s1` (stereo unspecified), the activation was inactive: 9.96%.

Turning to `COc1cc(CNc2ccc3[nH]c(=O)[nH]c3c2)cc(Br)c1OCc1ccccc1F`, the activation was inactive: 5.59%.

With `Cc1cccc(CN2CCN(CC(=O)Nc3c(C)cccc3C)S2(=O)=O)c1`, the activation is inactive: -19.1%. As to `NC1=NC(c2cc(F)cc(F)c2)n2c(nc3ccccc32)N1` (stereo unspecified), the activation is inactive: 46.3%. Consider `CC1=C(C(=O)NCc2ccc(Cl)cc2)C2(CCC(C)CC2)OC1=O` (stereo unspecified), for which the activation is inactive: -21.6%. In the case of `Cc1ccc(CNC(=O)CCc2c(C)nc3c4c(C)cc(C)nc4nn3c2C)cc1`, the activation is inactive: 9.99%. `Cc1ccc(Cl)cc1NC(=O)CC1Sc2ccccc2NC1=O` (stereo unspecified): the activation is inactive: 14.5%.

`COc1cccc(NC(=O)Cn2c(-c3nonc3N)nc3ccccc32)c1`: the activation was inactive: 2.04%. On to `COc1ccccc1N1CCN(c2csc3ccccc3c2=O)CC1`, for which the activation was inactive: -25.9%. Consider `Cc1cccc(C)c1Nc1c(-c2ccsc2)nc2cccc(C)n12`, for which the activation was inactive: -6.32%. With `COc1cc(NC(=O)CCS(=O)(=O)c2ccc3c(c2)n(C)c(=O)c(=O)n3C)cc(OC)c1`, the activation was inactive: -23%.

`Cc1cccc(NC(=O)N2CCN3CCCCC3C2)c1C` (stereo unspecified): the activation is inactive: -9.91%. Take `CCc1ccc(Sc2cc(C(=O)NCCCN3CCC(C)CC3)c3ccccc3n2)cc1`: the activation is active: 89.4%. With `COC(=O)c1cc2oc3ccccc3c2n1Cc1ccccc1Cl` the figure was inactive: -9.18%; with `COc1ccccc1CNC(=O)CCCCn1c(=O)c2ccccc2n(CC(=O)Nc2cccc(Cl)c2)c1=O`, inactive: 2.38%.

`CCOc1ccc(/C=C/c2nc(C#N)c(N3CCC(C)CC3)o2)cc1`: the activation is inactive: -29.8%. On to `O=c1c(-c2cc(-c3ccccc3)nc3c2COc2ccccc2-3)coc2ccc(Cl)cc12`, for which the activation was inactive: 5.71%. With `Cc1ccc(-n2ncc3c(N4CCN(c5ccc(F)cc5)CC4)ncnc32)cc1`, the activation is inactive: 20.4%.

Consider `COc1ccc2oc(-c3ccc(NC(=O)c4ccc(Cl)cc4Cl)cc3)nc2c1`, for which the activation is inactive: 37.8%. Turning to `COc1ccc(CNC(=O)C(=O)Nc2cccc(C)c2C)cc1`, the activation was inactive: 43%.

In the case of `CCc1ccc(NC(=O)C2CCCN(c3nnc(C)c4c(C)n(-c5ccccc5)nc34)C2)cc1` (stereo unspecified), the activation was inactive: 4%. With `O=C(Nc1cc(Cl)ccc1Cl)c1cc(S(=O)(=O)N2CCc3ccccc3C2)ccc1F`, the activation is inactive: -21.3%. With `CN1CCN(C2=Nc3ccccc3Sc3ccc(Cl)cc32)CC1` the figure was inactive: -0.665%; with `O=C(Cn1c(-c2cccs2)cc2ccccc21)N1CCN(c2ccc(F)cc2)CC1`, inactive: -10.9%. On to `COC(=O)c1c(-c2cccs2)csc1NC(=O)c1ccc(C)cc1`, for which the activation was inactive: -2.33%. Consider `COc1ccc(OC)c(C(=O)CN2C(=O)N(c3ccc(C)cc3)S(=O)(=O)c3ccccc32)c1`, for which the activation was inactive: -32.6%. For the compound `Cc1ccc(CNS(=O)(=O)c2ccc3c(c2)CC(C)N3C(=O)C2CCC2)cc1` (stereo unspecified), the activation was inactive: 13.9%.

Take `Cc1cc(Br)ccc1NC(=O)c1c(C)oc2ncnc(N3CCCCC3)c12`: the activation was inactive: -6.41%. As for `Cc1ccccc1N1CC(c2nc3ccccc3n2Cc2ccc(Br)cc2)CC1=O` (stereo unspecified), the activation is active: 91.7%.
